In the supplement of paper PMC9446081:
The campaign covered roughly 39,000 compounds. About 220 (0.56%) showed activity. Some of the results follow.

System: Escherichia coli K-12 BW25113
Assay: relative growth (OD600 normalised to plate interquartile mean) (fraction); higher = less growth inhibition, active = 0.2 or less
Conditions: 50 µM; LB; incubation time: overnight (16-24 h)
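Note: static incubation at 37 °C against the wild-type strain, values averaged over two biological replicates.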

Structure (SMILES) | relative growth
O=C(C[C@H]1CC[C@@H]2[C@H](COC[C@@H](O)CN2C(=O)c2ccccc2)O1)NCCCN1CCOCC1 | inactive: 1.01
C=CC[C@@H](CC(=O)N[C@H](CO)Cc1ccccc1)C(=O)N[C@@H](C)COC(=O)[C@H](CC=C)CC(=O)OC(C)(C)C | inactive: 0.993
Cc1ccc(S(=O)(=O)N(C)C[C@H]2Oc3ccc(NC(=O)CCCN(C)C)cc3C(=O)N([C@H](C)CO)C[C@@H]2C)cc1 | inactive: 1.03
N#CCC(=O)NCc1ccccn1 | inactive: 1.03
Cc1ccc(-c2ccc3c(c2)O[C@@H](CN(C)C(=O)NC(C)C)[C@H](C)CN([C@@H](C)CO)S3(=O)=O)cc1 | inactive: 1.02
C[C@@H]1CN([C@@H](C)CO)C(=O)c2ccccc2-c2ccccc2CO[C@H]1CN(C)C(=O)Nc1cccc(F)c1 | inactive: 0.98
O=C(NC1=C(c2ccc(OC(F)(F)F)cc2)C(=O)c2ccccc2C1=O)c1ccc(Br)cc1 | inactive: 0.987
C[C@@H]1CCCCO[C@H](CN(C)C(=O)CCC(F)(F)F)[C@@H](C)CN([C@H](C)CO)C(=O)c2cc(NS(=O)(=O)c3ccccc3)ccc2O1 | inactive: 0.984
C[C@H]1CN([C@@H](C)CO)S(=O)(=O)c2ccc(-c3ccncc3)cc2O[C@@H]1CN(C)C(=O)c1cccc(F)c1 | inactive: 1.02
Nc1cc2[nH]cnc2c(O)n1 | inactive: 0.931
Cc1noc(C)c1NC(=O)Nc1ccc2c(c1)C(=O)N([C@@H](C)CO)C[C@@H](C)[C@H](CN(C)C(=O)Nc1ccc(C(F)(F)F)cc1)OCCCC[C@@H](C)O2 | inactive: 1.03
CC(=O)N(O)CCCCCNC(=O)CC(O)(CC(=O)NCCCCCN(O)C(C)=O)C(=O)O | inactive: 0.98
COCC(=O)N1[C@@H]2c3ccc(C4=CCCCC4)c(=O)n3C[C@@H]2[C@@H](CO)[C@@H]1C(=O)N1CCN(C)CC1 | inactive: 1
CC(=O)N(C)C[C@@H]1Oc2ncc(C#C[C@H](C)O)cc2C(=O)N([C@@H](C)CO)C[C@@H]1C | inactive: 1.01
CC(C)NC(=O)N(C)C[C@@H]1Oc2ncc(-c3ccc(C(=O)N(C)C)cc3)cc2C(=O)N([C@H](C)CO)C[C@@H]1C | inactive: 0.988
NCCC1=CSC2=NCCN12 | inactive: 1.05
CC(C)(N)c1ccccc1Br | inactive: 1
O=C(C[C@@H]1CC[C@H]2[C@@H](COC[C@H](O)CN2S(=O)(=O)c2cccc(Cl)c2)O1)NCCCN1CCOCC1 | inactive: 0.985
CC(C)[C@@H](CO)N1C(=O)[C@@H]2[C@H]3C(=O)O[C@H](C)CC/C=C\[C@H]3O[C@]23C=CCN(Cn2nnc4ccccc42)C(=O)[C@@H]13 | inactive: 1
COCC(=O)N1CCCc2c(C#N)nn(C)c2C1 | inactive: 1
CC(C)NC(=O)Nc1cccc2c1O[C@@H](CN(C)S(=O)(=O)c1cn(C)cn1)[C@@H](C)CN([C@H](C)CO)C2=O | inactive: 0.972

Structure (SMILES) | relative growth
COCC(=O)N1[C@H](C(=O)N2CCOCC2)[C@@H](CO)[C@@H]2Cn3c(ccc(C4=CCCCC4)c3=O)[C@@H]21 | inactive: 1.04
CC(C)NC(=O)Nc1ccc2c(c1)CC(=O)N([C@@H](C)CO)C[C@H](C)[C@H](CN(C)C(=O)Nc1ccc3c(c1)OCO3)O2 | inactive: 1.02
C[C@@H]1CN([C@@H](C)CO)C(=O)c2cc(NC(=O)C3CCCCC3)ccc2O[C@H]1CN(C)C(=O)Nc1cccc2ccccc12 | inactive: 1.02
CCS(=O)(=O)N(C)C[C@@H]1OCc2ccccc2-c2c(n(C)c3ccccc23)C(=O)N([C@@H](C)CO)C[C@@H]1C | inactive: 0.999
Cc1ccc(-c2ccc3c(c2)O[C@@H](CN(C)C(=O)NC(C)C)[C@@H](C)CN([C@@H](C)CO)S3(=O)=O)cc1 | inactive: 0.995
CO[C@H]1CN(C)C(=O)c2ccc(NC(=O)C3CCOCC3)cc2OC[C@H](C)N(Cc2cccnc2)C[C@H]1C | inactive: 0.987
C[C@H](CO)N1C[C@H](C)[C@@H](CN(C)C(=O)Cc2ccccn2)Oc2ncc(C#CC3CCCC3)cc2C1=O | inactive: 0.999
Cc1noc(C)c1NC(=O)N(C)C[C@@H]1OCCCC[C@H](C)Oc2ccc(NS(=O)(=O)c3ccc(Cl)cc3)cc2C(=O)N([C@@H](C)CO)C[C@H]1C | inactive: 1.01
O=C(C[C@@H]1CC[C@@H]2[C@H](COC[C@H](O)CN2S(=O)(=O)c2ccc(Cl)cc2)O1)NCC1CCCCC1 | inactive: 1.02
C[C@@H]1CN([C@@H](C)CO)C(=O)c2cccc(NS(=O)(=O)c3cn(C)cn3)c2O[C@H]1CN(C)Cc1ccc(C(=O)O)cc1 | inactive: 1
C[C@@H]1CN([C@H](C)CO)C(=O)c2cccc(NC(=O)Nc3ccc(F)cc3)c2O[C@H]1CN(C)C(=O)Nc1ccc(C(F)(F)F)cc1 | inactive: 1
COc1ccc(S(=O)(=O)N(C)C[C@@H]2Oc3ccc(NC(=O)Cn4cnnn4)cc3CC(=O)N([C@@H](C)CO)C[C@@H]2C)cc1 | inactive: 0.989
C[C@@H]1CN([C@@H](C)CO)C(=O)c2cc(NS(C)(=O)=O)ccc2O[C@@H](C)CCCCO[C@@H]1CN(C)C(=O)c1ccncc1 | inactive: 0.986
COc1cc(CC=Cc2ccccc2)c(OC)cc1O | inactive: 1.18
C[C@@H]1CCCCO[C@H](CN(C)Cc2ccc(C(F)(F)F)cc2)[C@@H](C)CN([C@@H](C)CO)C(=O)c2cc(NC(=O)c3ccccc3)ccc2O1 | inactive: 0.956
Cl.c1ccc2c(c1)CCCC2C1=NCCN1 (stereo unspecified) | inactive: 1.03
Cc1noc(C)c1S(=O)(=O)N(C)C[C@H]1Oc2ccc(NC(=O)Nc3ccccc3)cc2CC(=O)N([C@H](C)CO)C[C@@H]1C | inactive: 1
CC(=O)N[C@@H](CCC(=O)O)C(=O)O | inactive: 0.989
C[C@H]1CCCCO[C@H](CN(C)C(=O)CCC(F)(F)F)[C@@H](C)CN([C@@H](C)CO)C(=O)c2cc(NC(=O)NC3CCCCC3)ccc2O1 | inactive: 1.01
COc1cccc(C#Cc2ccc3c(c2)O[C@@H](CN(C)C(=O)CN2CCOCC2)[C@@H](C)CN([C@@H](C)CO)S3(=O)=O)c1 | inactive: 0.95
